# Measurements: PubChem BioAssay AID463173 (ICCB-Longwood Screening Facility, Harvard Medical School, 2010)
# Out of some 52,000 compounds screened, about 1,700 (3.3%) were called active. No stated cut-off is given here; in the data, active means survival mostly below about 52% (no sharp cut-off); inactive means mostly above about 56%. This is one part of the list.
# Tested on: Wild type
# Assay: growth inhibition of S. aureus wild type versus tarO mutant, primary screen, teichoic acid synthesis inhibitors, RN4220, OD600 (AID 463173)
# Conditions: S. aureus RN4220 wild type/DeltatarO growth, OD600, 18 h, stronger effect = lower value, screened at 18.75 µg/mL (by protocol)
row,SMILES,survival
1,CCN(CC)c1ccc2cc(-c3nc(-c4ccccc4F)no3)c(=O)oc2c1,inactive: 93%
2,Cc1cc(C)c(S(=O)(=O)Nc2ccc(-c3ccc(N4CCCCCC4)nn3)cc2)cc1C,inactive: 65%
3,CCCCn1c(SCC(N)=O)nnc1-c1ccco1,inactive: 106%
4,COC(=O)Cn1cc(C(=O)c2cccs2)c2ccccc21,inactive: 107%
5,O=C(C1COc2ccccc2O1)N1CCCC1 (stereo not drawn),inactive: 105%
6,Cc1cccc(NC(=O)CSc2nc3c(sc4ccccc43)c(=O)n2CCCC(=O)NC2CCCC2)c1,inactive: 90%
7,Cc1cccc(C(=O)Nc2ccc(S(=O)(=O)N(Cc3ccccc3)c3ccccc3)cc2)c1,inactive: 83%
8,CCC(C)NC(=O)CSc1nc2cc3c(cc2c(=O)n1Cc1ccc(C(=O)NCCc2ccc(OC)c(OC)c2)cc1)OCO3 (stereo not drawn),inactive: 100%
9,Nc1ncnc2c1ncn2C1OC(C(=O)O)C(O)C1O (stereo not drawn),inactive: 108%
10,CCc1ccc(NC(=O)Nc2nnc(N(C)C3CCCCC3)s2)cc1,inactive: 112%
11,O=C(Nc1cccc(C(F)(F)F)c1)c1ccc2snnc2c1,inactive: 118%
12,CC(=O)c1ccc(NC(=O)Cn2c(=O)nc(-c3ccccc3)c3cc(Cl)ccc32)cc1,inactive: 115%
13,COc1cccc(NC(=O)c2oc3ccccc3c2NC(=O)c2cc3ccccc3o2)c1,inactive: 72%
14,Cc1cccc(N2CCN(C(=O)C3CCN(c4ncnc5c4nc4n5CCCCC4)CC3)CC2)c1C,inactive: 81%
15,CCOC(=O)C1CCCN(c2ncnc3c2nnn3C)C1 (stereo not drawn),inactive: 121%
16,O=S(=O)(Nc1ccc(F)cc1F)c1ccc(-n2cccn2)cc1,inactive: 67%
17,COCCn1c(SCC(=O)c2c[nH]c3ccccc23)nc2cc(C(=O)NC(C)C)ccc2c1=O,active: 14%
18,Cc1nc2ccn(Cc3cccnc3)c(=O)c2cc1C(=O)Nc1ccc(F)cc1F,inactive: 81%
19,COCCCNC(=O)c1ccc(C)c(-n2c(C)nc3cccnc32)c1,inactive: 68%
20,CCOc1ccc(CCNC(=O)c2cc3c(s2)-c2c(C)cccc2OC3)cc1,inactive: 90%

row,SMILES,survival
1,CN1/C(=C/C(=O)C2CCC2)Sc2ccccc21,inactive: 107%
2,O=C(CN1C(=O)CCc2cc(S(=O)(=O)N3CCOCC3)ccc21)NCc1ccc(Cl)cc1,inactive: 45%
3,CCOc1ccc(-c2nnc(SCC(=O)c3ccc(Br)cc3)n2-c2ccccc2)cc1,inactive: 92%
4,COc1ccc(NC(=O)Cn2nnc3sc4c(c3c2=O)CCCC4)cc1,inactive: 69%
5,Cc1ccc(OCC(=O)Nc2ccc3nc(SCCOc4ccccc4)sc3c2)cc1,inactive: 99%
6,CCOC(=O)Cn1c(=O)oc2cc(S(=O)(=O)N3CCC(C(=O)OCC)CC3)ccc21,inactive: 81%
7,Cc1ccc(NC(=O)CN2C(=O)COc3ccc(S(=O)(=O)Nc4ccccc4)cc32)c(C)c1,inactive: 53%
8,COc1ccc(CNC(=O)c2ccc3nc(C(C)C)oc3c2)cc1OC,inactive: 54%
9,O=C(Nc1cccc2ccccc12)OC1C=CS(=O)(=O)C1 (stereo not drawn),inactive: 107%
10,Cc1cc(C)c(NC(=O)CSc2nc3ccncc3[nH]2)c(C)c1,inactive: 127%
11,CC(C)NC(=O)C1CCN(c2ccc(S(=O)(=O)N3CCOCC3)cc2Cl)CC1,inactive: 103%
12,Cc1ccc(C2=NC(c3ccccc3)=Nc3ccc(Cl)cc3N2)cc1,inactive: 82%
13,COCCCNC(=O)CSc1nc(-c2ccc(OC)c(OC)c2)[nH]c1-c1ccc(F)cc1,inactive: 85%
14,Cc1cc(C)c2c(=O)cc(C(=O)NCc3ccc(S(N)(=O)=O)cc3)oc2c1,inactive: 121%
15,CCc1ccc(NC(=O)CCc2nnc3n(C)c(=O)c4sccc4n23)cc1,inactive: 66%
16,COC(=O)c1cc2oc3ccccc3c2n1Cc1c(C)cc(C)cc1C,inactive: 115%
17,Cc1cccc(NC(=O)C2CCCN(S(=O)(=O)c3ccc(Br)s3)C2)c1 (stereo not drawn),inactive: 68%
18,Cc1cc(C)cc(NC(=O)Cn2c(=O)n(Cc3ccco3)c(=O)c3oc4ccccc4c32)c1,inactive: 106%
19,COc1cc2ccccc2cc1C(=O)Nc1cccc(-c2nc3cc(C)ccc3o2)c1C,inactive: 75%
20,Cc1nn2c(=O)cc(COC(=O)COc3ccc(F)cc3)nc2s1,inactive: 74%

row,SMILES,survival
1,Cc1nc2cccnc2n1-c1cccc(C(=O)NCCc2ccc(S(N)(=O)=O)cc2)c1,inactive: 80%
2,COc1ccc(NC(=O)CS(=O)CC(=O)Nc2cc(OC)ccc2OC)cc1 (stereo not drawn),inactive: 107%
3,CCN(CCCNC(=O)CSc1cc(=O)n(CC)c2ccccc12)c1ccccc1,inactive: 64%
4,CCc1ccc(CNC(=O)Cn2ccc3cc(S(=O)(=O)N4CCCCCC4)ccc32)cc1,inactive: 134%
5,O=C(NC1CCCC1)c1ccc2c(=O)n(Cc3ccccc3)c(SCc3ccc([N+](=O)[O-])cc3)nc2c1,inactive: 73%
6,COc1ccc(OC)c2sc(N(Cc3cccnc3)C(C)=O)nc12,inactive: 100%
7,CCOC(=O)N1CCN(Cc2nc3cc(NC(=O)CC)ccc3n2C(C)C)CC1,inactive: 97%
8,CCc1ccc(-n2nc(CO)c(C(=O)NC(C)c3ccc(Cl)cc3)n2)cc1 (stereo not drawn),inactive: 97%
9,COc1cccc(CNC(=O)CN2C(=O)CCc3cc(S(=O)(=O)N4CCOCC4)ccc32)c1,inactive: 89%
10,CCOC(=O)/C(C#N)=C/C1=C(N)CC(C)(C)OC1,inactive: 104%
11,CN1CCN(C(=O)C2CCN(S(C)(=O)=O)CC2)CC1,inactive: 109%
12,Cc1ccc(Sc2ccc(N3CCCC(C(=O)Nc4ccc(Br)cc4)C3)nn2)cc1 (stereo not drawn),inactive: 57%
13,CSc1nnc(COc2cccc(C)c2)n1C,inactive: 95%
14,O=C(NCCc1ccc(Cl)cc1)c1cc(-c2ccccc2)n[nH]1,inactive: 80%
15,COc1ccc(SCc2cc(=O)c3ccc(C)c(C)c3[nH]2)cc1,inactive: 73%
16,Cc1c(C)n(Cc2ccccc2)c2ccc(C(=O)N3CCN(c4ccccc4F)CC3)cc12,inactive: 71%
17,Cc1nc2ccn(Cc3cccnc3)c(=O)c2cc1C(=O)N1CCN(c2ccccc2F)CC1,inactive: 73%
18,Cc1ccc(C)c(N2CCN(c3nc4ccccc4c(=O)n3-c3ccc(Cl)cc3)CC2)c1,inactive: 78%
